The densities may have been worked out from excess volumes.
Assay: xn = mol fraction of the nth substance listed
Conditions: 101 kPa

N#C[N-]S(=O)(=O)C(F)(F)F.[Li+] + CCCC[N+]1(CCCC1)C.[N-](C#N)S(=O)(=O)C(F)(F)F
mass density [kg/m3]
Conditions | 293 K | 298 K | 303 K | 308 K | 313 K | 318 K | 323 K
x1 = 0.05 | 1247.4 | 1243.6 | 1239.9 | 1236.2 | 1232.5 | 1228.8 | –
x1 = 0.1 | 1259.2 | 1255.5 | – | 1248 | 1244.3 | 1240.6 | –
x1 = 0.2 | 1285 | 1281.2 | 1277.5 | 1275.7 | 1270.1 | – | 1262.7

CCCC[N+]1(C)CCCC1.N#C[N-]C#N + CCCC[N+]1(C)CCCC1.O=S(=O)([N-]S(=O)(=O)C(F)(F)F)C(F)(F)F
x2 = 0.5
Conditions | mass density [kg/m3]
293 K | 1242.8
298 K | 1239.1
303 K | 1235.4
308 K | 1231.7
313 K | 1228.1

CCCC[N+]1(C)CCCC1.N#C[N-]S(=O)(=O)C(F)(F)F + [Li+].[N-](C#N)S(=O)(=O)C(F)(F)F
x2 = 0
Conditions | mass density [kg/m3]
293 K | 1235.8
298 K | 1232
303 K | 1228.3
318 K | 1217.2
323 K | 1213.5

Source: a compilation of properties of binary mixtures (doi:10.1021/acs.jced.2c00294)
